Measured values from PubChem BioAssay AID504374 (National Center for Advancing Translational Sciences (NCATS), 2011).
The campaign covered roughly 1,500 compounds. About 100 (6.7%) were called active. Not shown: some 7% with an inconclusive outcome. Calls come from the whole dose curve; as a rule, active = well fitted inhibition curve with a large enough effect; inconclusive = small, poorly fitted or top-dose-only effect, or effect the other way; inactive = flat fitted curve, though single readings scatter. The list shows a part of the results.

biological target: Runt-related transcription factor 1 (Homo sapiens) + Core-binding factor subunit beta (Homo sapiens) (UniProt Q01196+Q13951); assay: qHTS Assay for Compounds Blocking the Interaction Between CBF-beta and RUNX1 for the Treatment of Acute Myeloid Leukemia: Hit Validation; conditions: AlphaScreen CBFb-His/RUNX1-biotin binding; series mostly up to 59.8 µM; activity, negative = inhibition: at the top concentration; note: nearly all actives have a fitted effect of over 60% in size
How it was run: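 Compounds were added to a premixed CBF-beta-His/RUNX1-biotin complex (30 nM each, 20 min) for 15 min. Nickel and streptavidin AlphaScreen beads followed for 90 min at room temperature, with emission at 440 nm […].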
% is set by controls: 0 for no effect and ±100 for the full control effect.

Chain of UniProt Q01196 (Q01196 whole entry, looked up): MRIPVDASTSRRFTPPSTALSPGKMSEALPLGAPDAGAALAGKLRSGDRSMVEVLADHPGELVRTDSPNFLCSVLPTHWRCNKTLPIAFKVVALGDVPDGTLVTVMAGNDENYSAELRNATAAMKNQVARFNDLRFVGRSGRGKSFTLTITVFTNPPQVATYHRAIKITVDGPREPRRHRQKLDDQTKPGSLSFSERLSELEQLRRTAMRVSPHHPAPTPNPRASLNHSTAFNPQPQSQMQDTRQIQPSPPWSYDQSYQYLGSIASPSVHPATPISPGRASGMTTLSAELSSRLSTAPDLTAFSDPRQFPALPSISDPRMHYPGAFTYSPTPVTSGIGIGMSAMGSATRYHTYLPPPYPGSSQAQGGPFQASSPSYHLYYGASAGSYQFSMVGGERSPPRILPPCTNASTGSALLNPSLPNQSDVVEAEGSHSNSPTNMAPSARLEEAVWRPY
Chain of UniProt Q01196 (Q13951 whole entry, looked up): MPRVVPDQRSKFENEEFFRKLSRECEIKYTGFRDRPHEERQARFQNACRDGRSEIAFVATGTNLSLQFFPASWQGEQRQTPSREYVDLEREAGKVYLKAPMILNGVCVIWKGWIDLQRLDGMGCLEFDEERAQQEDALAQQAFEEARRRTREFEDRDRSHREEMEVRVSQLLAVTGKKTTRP

activity, negative = inhibition, inactive:
CN(C)c1cc(-c2cccc([N+](=O)[O-])c2)oc(=O)c1Cl -5.18%
CC(=O)c1sccc1NC(=O)c1ccccc1C(=O)O -8.63%
COc1ccc2[nH]c(=O)c(CN(C(=O)c3cccnc3)c3cccc(C)c3)cc2c1 0.652%
Cc1[nH]c2ccccc2c1C(=O)CSC(=S)N1CCN(C)CC1 -7.37%
CCSc1nc(C)c(C)c(=O)[nH]1 -9.91%
C(=C\c1nccc2c1[nH]c1ccccc12)/c1ccccc1 41.3%
CC(C)CCNC(=O)C(=O)NCc1ccccc1 15.7%
O=C(Oc1ccc2c(c1)O/C(=C\c1ccncc1)C2=O)c1cccs1 -8.69%
COC(=O)c1[nH]c2cc(OC)ccc2c1N=CN(C)C 1.84%
CCN(c1cccc2ccccc12)S(=O)(=O)c1ccc(Cl)nc1 -11.9%
Cc1ccc(CNS(=O)(=O)c2ccc(C(F)(F)F)cc2)n1C -3.49%
O=C(/C=C/c1ccc(O)c(O)c1)c1ccccc1O -28.7%
CCN(CC)S(=O)(=O)c1ccc(N=Nc2c(N)[nH]c(=O)[nH]c2=O)cc1 -3.02%
CCCCC(=O)Nc1ccc(NC(=S)NC(=O)c2ccco2)cc1OC -5.89%
Cc1ccc(S(=O)(=O)Oc2ccccc2/C=C2/SC(=O)NC2=O)cc1 -5.4%
CC(C)c1ccc(-c2nc3ccccc3s2)cc1 0.402%
C/C(=N/NC(=O)CCc1c(C)n[nH]c1C)c1cccc([N+](=O)[O-])c1 -1.15%
Fc1ccc(C(CCNCc2cccs2)c2ccco2)cc1 (stereo not given) 2.18%
CN1CCN(c2nnc(-c3ccccc3)c(-c3ccccc3)n2)CC1 -0.376%
Cn1c2c(c(=O)n(C)c1=O)C(c1cccc(F)c1)C(C#N)=C(N)O2 (stereo not given) -0.0745%
COc1cc(C)nc(NC(=S)N(C)C(=O)c2ccccc2)n1 6.54%
OCCNC(=S)NCc1ccccc1 1.83%
CSc1nc2cc(S(=O)(=O)N3CCCCC3)ccc2s1 -1.3%
CN(CC(O)CN1CCOCC1)S(=O)(=O)O (stereo not given) 3.07%
CC1(C)Cc2nc(-c3ccccc3)nc(SCC(O)CO)c2CO1 (stereo not given) 3.48%
O=C(CN1C(=O)NC2(CCCCC2)C1=O)Nc1cccc(S(=O)(=O)N2CCOCC2)c1 2.23%
Cc1cc([N+](=O)[O-])nn1Cc1ccc(C(=O)N/N=C/c2ccc(N(C)C)cc2)cc1 -10.8%
CCOC(=O)c1ccc(N2CCCCC2)c(NS(=O)(=O)c2cccc(C(F)(F)F)c2)c1 -3.37%
N/C(CC1CC1(Cl)Cl)=N\OC(=O)c1ccccc1 (stereo not given) -12.5%
CC(=O)c1cnn(-c2ccc(Cl)cc2)c1C -5.58%
CCOC(=O)c1sc(NC(=O)CSC(=S)N2CCN(C)CC2)nc1C 4.77%
CC(=O)c1sc(C(C)(C)C)cc1NC(=O)/C=C/C(=O)O 4.93%
Cn1c(-c2ccc3ccccc3n2)[n+](C)c2ccccc21 -16.8%
Cc1[nH][nH]c(=O)c1C(c1ccc(N(C)C)c(Br)c1)c1c(C)[nH][nH]c1=O 0.798%
CCOC(=O)c1sc(=S)n(-c2ccc(OC)cc2)c1N -0.115%
CCOc1cc(/C=N/n2c(C)nnc2C)ccc1O -4.6%
COc1ccc(CNc2nc3nc(C)c(Cl)c(C)n3n2)cc1 8.57%
Cc1cc([N+](=O)[O-])nn1CC(=O)N/N=C/c1ccccc1F -9.4%
O=C(c1ccccc1)C1C(c2ccccc2)C1[N+](=O)[O-] (stereo not given) 2%
CN(C)C(=S)Nc1ccc(Cl)cc1 -0.606%
CNC(=O)C(=O)N/N=C/c1cccnc1 26.6%
O=[N+]([O-])c1ccc2[nH]c(O)c(N=NC3CS(=O)(=O)CC3O)c2c1 (stereo not given) -2.13%
O=C(NC1CCN(C(=O)c2cccs2)CC1)c1ccccc1 -0.26%
CCOc1ccc(N2CSC(=S)N(c3ccc(OCC)cc3)C2)cc1 -7.44%
O=C1/C(=C/c2ccsc2)N2CCC1CC2 6.1%
Cc1ccc(NC(=O)N2CCCn3c(SCC(=O)c4ccccc4)nnc32)cc1 -7.56%
CN(C)c1cccc(N(C)C)c1CNC(=O)C(C)(C)C -1.46%
COC(=O)c1cnc(NNS(=O)(=O)c2ccc(Cl)cc2)nc1C(F)(F)F -1.83%
CCOc1nsc(OCC)n1 -0.467%
CCOC(=O)c1cc(-c2ccccc2)nc2ccc(C)cc12 8.01%
Cc1cc(=O)[nH]c(N/N=C/c2ccc3c(c2)OCCO3)n1 -12.7%
COc1ccc(/C=N/NC(=O)CCn2cnc3ccccc32)cc1 -19%
O=C(N/N=C/c1ccc(Br)s1)c1ccco1 6.4%
CN1C(CC(=O)Nc2ccc(Cl)cc2Cl)c2ccccc2CC1(C)C (stereo not given) -4.16%
Cc1cc(C(F)(F)F)cc(NNC(=O)NC(=O)c2ccccc2Cl)n1 3.45%
N/C(=N\OC(=O)c1cnn(-c2ccccc2)c1C(F)(F)F)c1cc(C(F)(F)F)cc(C(F)(F)F)c1 1.52%
O=C(N/N=C/c1ccccc1[N+](=O)[O-])c1cnccn1 -5.63%
Cc1nc(SCCO)c([N+](=O)[O-])[nH]1 -1.27%
CC(=O)c1c(C)nc(Nc2nc3ccccc3s2)nc1C 10.6%
Cc1oc(S(=O)(=O)N2CCOCC2)cc1C(=O)Nc1ccc(Cl)cc1 0.424%
